{"source": "the supplement of paper PMC9446081", "note": "Screen size: about 39,000 compounds; about 220 (0.56%) showed activity. The list shows a part of the results.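 Also: static incubation at 37 °C against the wild-type strain, values averaged over two biological replicates.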"}
{"tested_on": "Escherichia coli K-12 BW25113", "test": "relative growth (OD600 normalised to plate interquartile mean) (fraction); higher = less growth inhibition, active = 0.2 or less", "settings": "50 µM; LB; incubation time: overnight (16-24 h)"}
{"smiles": "C[C@]12C=CC(=O)N[C@@H]1CC[C@@H]1[C@@H]2CC[C@]2(C)[C@@H](C(=O)Nc3cc(C(F)(F)F)ccc3C(F)(F)F)CC[C@@H]12", "relative growth": "inactive: 0.931"}
{"smiles": "CCOCc1c[nH]c(=O)[nH]c1=O", "relative growth": "inactive: 1.04"}
{"smiles": "COc1cccc(NC(=O)N(C)C[C@H]2Oc3ncc(C#Cc4cccnc4)cc3C(=O)N([C@H](C)CO)C[C@@H]2C)c1", "relative growth": "inactive: 0.984"}
{"smiles": "Cc1noc(C)c1NC(=O)Nc1ccc2c(c1)CC(=O)N([C@@H](C)CO)C[C@@H](C)[C@H](CN(C)Cc1ccc(C(=O)Nc3ccccc3N)cc1)O2", "relative growth": "inactive: 0.994"}
{"smiles": "C[C@@H]1CCCCO[C@H](CN(C)C(=O)Nc2ccc(C(F)(F)F)cc2)[C@@H](C)CN([C@H](C)CO)C(=O)c2cc(NS(=O)(=O)c3ccccc3)ccc2O1", "relative growth": "inactive: 1.01"}
{"smiles": "CCCN(C)C[C@@H]1OCCCC[C@H](C)Oc2ccc(NC(=O)Nc3ccc(C(F)(F)F)cc3)cc2C(=O)N([C@@H](C)CO)C[C@@H]1C", "relative growth": "inactive: 1.01"}
{"smiles": "C[C@@H]1CCCCO[C@@H](CN(C)C(=O)CCCN(C)C)[C@H](C)CN([C@@H](C)CO)C(=O)c2cc(NC(=O)Nc3ccc(F)cc3)ccc2O1", "relative growth": "inactive: 1.01"}
{"smiles": "Cn1cc(S(=O)(=O)N2CCN(c3ccccc3F)CC2)c(=O)n(C)c1=O", "relative growth": "inactive: 1.05"}
{"smiles": "CCOC(=O)CCn1cc(F)c(=O)[nH]c1=O", "relative growth": "inactive: 0.986"}
{"smiles": "O=C(N[C@@H](c1ccc(-c2ccccc2)cc1)c1cnccn1)C1CCN(Cc2cccc(C(F)(F)F)c2)CC1", "relative growth": "inactive: 1.01"}
{"smiles": "COc1ccc(S(=O)(=O)Nc2ccc3c(c2)C(=O)N([C@@H](C)CO)C[C@H](C)[C@@H](CN(C)C(=O)Nc2ccc(F)cc2)OCCCC[C@H](C)O3)cc1", "relative growth": "inactive: 1.02"}
{"smiles": "O=C1C[C@H]2[C@@H](CCN2c2cnccn2)N1", "relative growth": "inactive: 1.02"}
{"smiles": "COc1ccc(S(=O)(=O)N(C)C[C@H]2Oc3ccc(NS(=O)(=O)c4ccc(F)cc4)cc3C(=O)N([C@H](C)CO)C[C@H]2C)cc1", "relative growth": "inactive: 1.02"}
{"smiles": "Cc1noc(C)c1S(=O)(=O)N(C)C[C@H]1Oc2ccc(NC(=O)Nc3ccc4c(c3)OCO4)cc2CC(=O)N([C@@H](C)CO)C[C@H]1C", "relative growth": "inactive: 0.994"}
{"smiles": "CN(C)C(=O)C[C@H]1CC[C@@H]2[C@H](COC[C@@H](O)CN2S(=O)(=O)c2ccccc2)O1", "relative growth": "inactive: 0.998"}
{"smiles": "C[C@@H]1CN([C@@H](C)CO)C(=O)c2cc(C#CC3(O)CCCC3)cnc2O[C@H]1CN(C)C(=O)Nc1ccc2c(c1)OCO2", "relative growth": "inactive: 0.988"}
{"smiles": "Cc1ccc(S(=O)(=O)N2CCO[C@@H]2CNC(=O)C(=O)NCc2ccccn2)cc1", "relative growth": "inactive: 1"}
{"smiles": "O=C(C[C@@H]1CC[C@@H]2[C@H](COC[C@@H](O)CN2S(=O)(=O)c2ccccc2)O1)N1CCOCC1", "relative growth": "inactive: 1"}
{"smiles": "CC(C)CC#Cc1cnc2c(c1)C(=O)N([C@H](C)CO)C[C@H](C)[C@@H](CN(C)S(=O)(=O)c1cccs1)O2", "relative growth": "inactive: 1.01"}
{"smiles": "C[C@H](CO)N1C[C@H](C)[C@H](CN(C)Cc2ccncc2)Oc2cc(C#CC(C)(C)O)ccc2S1(=O)=O", "relative growth": "inactive: 1"}
{"smiles": "COc1ccc(NC(=O)N(C)C[C@H]2OCCCC[C@@H](C)Oc3ccc(NS(=O)(=O)c4ccccc4)cc3C(=O)N([C@@H](C)CO)C[C@@H]2C)cc1", "relative growth": "inactive: 0.976"}
{"smiles": "C[C@@H]1CN([C@@H](C)CO)C(=O)c2cc(NC(=O)Nc3ccccc3)ccc2O[C@H]1CN(C)C(=O)Nc1cccc2ccccc12", "relative growth": "inactive: 1"}
{"smiles": "C[C@H]1CN([C@@H](C)CO)C(=O)c2cccc(NS(=O)(=O)c3ccc(F)cc3)c2O[C@H]1CN(C)S(C)(=O)=O", "relative growth": "inactive: 0.831"}
{"smiles": "COc1ccc(NC(=O)Nc2ccc3c(c2)C(=O)N([C@@H](C)CO)C[C@H](C)[C@@H](CN(C)C(=O)Nc2c(C)noc2C)OCCCC[C@H](C)O3)cc1", "relative growth": "inactive: 1"}
{"smiles": "CC(C)=CCC/C(C)=C/C=O", "relative growth": "inactive: 0.996"}
{"smiles": "CNC[C@@H]1Oc2ccc(NS(=O)(=O)c3cn(C)cn3)cc2CC(=O)N([C@H](C)CO)C[C@@H]1C", "relative growth": "inactive: 1.01"}
{"smiles": "COc1ccc(S(=O)(=O)Nc2ccc3c(c2)CC(=O)N([C@H](C)CO)C[C@H](C)[C@@H](CN(C)Cc2ccc(-c4ccccc4)cc2)O3)cc1", "relative growth": "inactive: 0.997"}
{"smiles": "C[C@@H]1CCCCO[C@H](CN(C)CC2CCCCC2)[C@H](C)CN([C@H](C)CO)C(=O)c2cc(NS(=O)(=O)c3ccccc3)ccc2O1", "relative growth": "inactive: 1"}
{"smiles": "C=CC(=O)NS(=O)(=O)c1ccccc1", "relative growth": "inactive: 0.949"}
{"smiles": "COc1cccc(NC(=O)N(C)C[C@@H]2Oc3ncc(C#Cc4cccnc4)cc3C(=O)N([C@H](C)CO)C[C@H]2C)c1", "relative growth": "inactive: 0.993"}
{"smiles": "C[C@@H]1CN([C@@H](C)CO)C(=O)c2cc(NC(=O)C3CCCCC3)ccc2O[C@H]1CN(C)S(=O)(=O)c1cn(C)cn1", "relative growth": "inactive: 0.993"}
{"smiles": "CS(=O)(=O)N1C[C@H](NC(=O)c2cnccn2)[C@H]2OCCC[C@H]21", "relative growth": "inactive: 1.02"}
{"smiles": "COc1ccc(S(=O)(=O)N(C)C[C@H]2OCCCC[C@H](C)Oc3ccc(NC(=O)Nc4ccc(F)cc4)cc3C(=O)N([C@@H](C)CO)C[C@H]2C)cc1", "relative growth": "inactive: 1"}
{"smiles": "O=C(O)CCCCCCCCCCCCC1C=CCC1", "note": "(stereo not given)", "relative growth": "inactive: 0.834"}
{"smiles": "[O-]/[N+](=N\\O[C@@H]1O[C@H](CO)[C@@H](O)[C@H](O)[C@H]1O)N1CCCC1", "relative growth": "inactive: 0.999"}
{"smiles": "CC(C)[C@@H](CO)N1C(=O)[C@@H]2[C@H]3C(=O)OCCC/C=C\\[C@H]3O[C@]23C=CCN(CCN2CCOCC2)C(=O)[C@@H]13", "relative growth": "inactive: 0.99"}
{"smiles": "O=c1nc[nH]c2c1ncn2[C@H]1CC[C@@H](CO)O1", "relative growth": "inactive: 0.488"}
{"smiles": "CCS(=O)(=O)N1CCNCC1", "relative growth": "inactive: 1.01"}
{"smiles": "C[C@@H]1CN([C@@H](C)CO)C(=O)c2cccc(NC(=O)c3cnccn3)c2O[C@H]1CN(C)S(=O)(=O)c1cn(C)cn1", "relative growth": "inactive: 1.01"}
{"smiles": "CCC1(c2ccccc2)C(=O)NCNC1=O", "relative growth": "inactive: 0.896"}
{"smiles": "CN1CCN(C(=O)C[C@@H]2CC[C@H]3[C@@H](COC[C@H](O)CN3Cc3ccc4c(c3)OCO4)O2)CC1", "relative growth": "inactive: 0.973"}
{"smiles": "CCC(=O)N(C)C[C@@H]1Oc2ncc(C#C[C@@H](C)O)cc2C(=O)N([C@@H](C)CO)C[C@H]1C", "relative growth": "inactive: 1.01"}
{"smiles": "C[C@@H]1CN([C@@H](C)CO)C(=O)c2cc(NS(=O)(=O)c3ccc(F)cc3)ccc2O[C@@H](C)CCCCO[C@@H]1CN(C)S(=O)(=O)c1cn(C)cn1", "relative growth": "inactive: 1.02"}
{"smiles": "CC(C)NC(=O)Nc1ccc2c(c1)CC(=O)N([C@@H](C)CO)C[C@H](C)[C@H](CN(C)S(=O)(=O)c1ccccc1)O2", "relative growth": "inactive: 1"}
{"smiles": "CO[C@@H]1CN(C)C(=O)c2cc(NS(=O)(=O)c3ccccc3)ccc2OC[C@@H](C)N(C(=O)NC(C)C)C[C@@H]1C", "relative growth": "inactive: 0.999"}
{"smiles": "O=C(NCCCc1nn[nH]n1)c1[nH]nc2c1CCC2", "relative growth": "inactive: 0.989"}
{"smiles": "C[C@H](O)CC(=O)O", "relative growth": "inactive: 0.713"}
{"smiles": "Cc1cc(C(=O)Nc2cccc3c2O[C@H](CN(C)S(C)(=O)=O)[C@H](C)CN([C@H](C)CO)C3=O)n(C)n1", "relative growth": "inactive: 0.995"}
{"smiles": "NCc1ccccc1F", "relative growth": "inactive: 1"}
{"smiles": "CC(=O)N[C@H]1CSSC[C@@H](C(N)=O)NC(=O)[C@H](C(C)C)NC(=O)[C@H](C)NC(=O)[C@H](Cc2cnc[nH]2)NC1=O", "relative growth": "inactive: 1"}
{"smiles": "Cc1noc(C)c1NC(=O)N(C)C[C@@H]1Oc2ccc(NS(=O)(=O)c3ccccc3)cc2C(=O)N([C@H](C)CO)C[C@@H]1C", "relative growth": "inactive: 1.03"}
{"smiles": "CN1C[C@@H](CN)CC1=O", "relative growth": "inactive: 1.01"}
{"smiles": "C[C@@H]1CN([C@H](C)CO)S(=O)(=O)c2ccc(C#CC(C)(C)O)cc2O[C@@H]1CN(C)C(=O)CN(C)C", "relative growth": "inactive: 0.992"}
{"smiles": "Cc1ccc(S(=O)(=O)Nc2ccc3c(c2)CC(=O)N([C@@H](C)CO)C[C@@H](C)[C@H](CN(C)Cc2ccc(C(F)(F)F)cc2)O3)cc1", "relative growth": "inactive: 0.952"}
{"smiles": "CC(=O)OCCc1nc(C(=O)NCc2ccc3c(c2)OCO3)cc2c1[C@@H](CCO)N([S@](=O)C(C)(C)C)C2", "relative growth": "inactive: 0.978"}
{"smiles": "C[C@H](CO)N1C[C@H](C)[C@@H](CN(C)C(=O)Nc2ccccc2)OCCCC[C@H](C)Oc2ccc(NC(=O)CCC(F)(F)F)cc2C1=O", "relative growth": "inactive: 1"}
{"smiles": "C[C@H]1CN([C@@H](C)CO)C(=O)c2cccc(NS(=O)(=O)c3ccccc3)c2O[C@@H]1CN(C)S(=O)(=O)c1ccccc1", "relative growth": "inactive: 0.993"}
{"smiles": "O=C(C[C@H]1C[C@H]2c3cc(NC(=O)C4CCOCC4)ccc3O[C@H]2[C@@H](CO)O1)NCc1cc(F)ccc1F", "relative growth": "inactive: 0.995"}
{"smiles": "C[C@H]1CN([C@@H](C)CO)C(=O)Cc2cc(NC(=O)Nc3ccc4c(c3)OCO4)ccc2O[C@H]1CN(C)Cc1ccc(C(F)(F)F)cc1", "relative growth": "inactive: 1.03"}
{"smiles": "Cc1noc(C)c1NC(=O)N(C)C[C@H]1OCCCC[C@@H](C)Oc2ccc(NC(=O)Nc3cccc4ccccc34)cc2C(=O)N([C@@H](C)CO)C[C@H]1C", "relative growth": "inactive: 0.97"}
{"smiles": "C[C@H]1CN([C@@H](C)CO)C(=O)c2cccc(NC(=O)c3nc4ccccc4s3)c2O[C@H]1CN(C)S(=O)(=O)c1cn(C)cn1", "relative growth": "inactive: 0.913"}
{"smiles": "C[C@H]1CN([C@@H](C)CO)C(=O)c2cc(NC(=O)Cc3cn(C)c4ccccc34)ccc2O[C@H]1CN(C)S(=O)(=O)c1cn(C)cn1", "relative growth": "inactive: 0.99"}
{"smiles": "CN(C)CC#Cc1ccc([C@H]2[C@H]3CN(C(=O)CN(C)C)CC(=O)N3[C@H]2CO)cc1", "relative growth": "inactive: 1.02"}
{"smiles": "O=C(CCCCC(=O)N/N=C/c1cc(I)cc(I)c1O)NO", "relative growth": "inactive: 0.886"}
{"smiles": "C[C@H]1CN([C@@H](C)CO)C(=O)c2cc(NC(=O)CCN3CCOCC3)ccc2O[C@@H]1CN(C)C(=O)Nc1ccc(F)cc1", "relative growth": "inactive: 0.99"}
